This passage reports self-cleavage results from the RNAGym collection of RNA variant scans (doi:10.1093/nar/gkz1192).

The source gives no read counts; variants with many changes may rest on few reads.

B1: CPEB3 Ribozyme (parent)
chain: UAACAGGGGGCCACAGCAGAAGCGUUCACGUCGCAGCCCCUGUCAGAUUCUGGUGAAUCUGCGAAUUCUGCUGUAUAUCUC

In the data set the parent is B1. As to the kind of experiment: self-cleavage, relative activity (ratio to wild type); higher = more cleavage; in vitro, sequencing. The essentials:
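For each CPEB3 ribozyme variant, relative activity is its cleaved/total read fraction divided by the unmutated ribozyme's. Barcoded error-prone PCR libraries were transcribed by T7 RNA polymerase (5 hours, 37°C) and held in DNase I for 15 min before an EDTA stop, with cleavage occurring throughout. Template-switching reverse transcription and Illumina sequencing were used to read the RNAs. A 5-read minimum applied, and results are the mean of three batches.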
As for U25A U51C U67C, the self-cleavage was found to be 0.14.
U25A G46A U51C U54A A56U U58A A65U: the self-cleavage was found to be 0.04.
As to U25C U31A U43C U67C, the self-cleavage is 0.16.
To U26A C29G A77G U80C belongs 0.13; to U25C U41C A56U U60C, 0.11; to U25A A35U U72A U78C, 0.07.
To U26A A28G A65G belongs 0.14; to U25C U43C A45G A75U, 0.23.
For U25G A64G U76A U78A, the self-cleavage was found to be 0.42.
For the variant U26A C34G A65U U69C U78C, the self-cleavage amounted to 0.07.
To U25C U31C U54C U66C belongs 0.13.
To U25C A56G U74C belongs 0.07; to U25C U43A U60C, 0.43.
For U25C U26A G33A, the self-cleavage amounted to 0.59.
In the case of U25A A56G U74C A75U U80G, the self-cleavage was determined as 0.16.
The value for U25C A35G U60A was 0.11; that for U25C U41A U51C A57G A65G U69A was 0.05.
The value for U25C A28G A77G was 0.27; that for U25C A45U U60C was 0.39.
The value for U25C A35U U41A A65G U78A was 0.04.
As to U26A A28G C40G A64G, the self-cleavage came to 0.06.
To U25C C40A U49C A56G A77G belongs 0.22; to U25A C37U C40A U49A U67G, 0.1; to U25C U41C A47G, 0.28.
In the case of U26A A28C A45G A77G, the self-cleavage was found to be 0.49.
For the variant U25C U43C U54C U58G U80C, the self-cleavage was found to be 0.17.
The value for U25C A28U A45G A56G was 0.2; that for U25C C37A C39U U48C A57G was 0.13; that for U25A A28G A45U U49C U51C U54C U74C was 0.12.
As to U25G U31C A47U C68A U80C, the self-cleavage was found to be 0.05.
With U25A A45U U80A, the self-cleavage is 0.37.
For U26A A28U A35C A45G, the self-cleavage amounted to 0.21.
For G24U A57G U69C, the self-cleavage is 0.13.
In the case of U25C C39A U80A, the self-cleavage was 0.23.
In the case of U25C U48C A56C A64G, the self-cleavage was determined as 0.13.
Turning to U25C U31A U72C, the self-cleavage is 0.07.
The value for U25C U26A A57G U72C was 0.07.
To U25C U49C U74C A75G A77U belongs 0.14.
For the variant U25C U54C A64G U72C U80C, the self-cleavage was 0.41.
For U25A U26A A35U U78C, the self-cleavage was 0.03.
Regarding U25C U41A U51C A56G U80C, the self-cleavage is 0.06.
Take U25A U58C U66C: the self-cleavage is 0.12.
On to U26A A56G U67C, for which the self-cleavage came out at 0.39.
For U25C U31A C40U U43C A64G C68A, the self-cleavage is 0.07.
Turning to U25C A56C A57G U58C A64G, the self-cleavage was 0.11.
U25C U66C C81U: the self-cleavage is 0.15.
As for U25C U48C G70A U72A, the self-cleavage stood at 0.09.
Consider U25C U41G U80C, for which the self-cleavage was 0.35.
For the variant U25C A35G U54C, the self-cleavage is 0.1.
To U26A A28G U31C U66C belongs 0.14.
To U25C C37A A47G U49C U76C belongs 0.14; to U25C U31A U69C U72C, 0.09.
To U26A C40U G46U U58C belongs 0.07.
For U26A A28G A64U U66C, the self-cleavage stood at 0.17.
With U25C A35U U72C, the self-cleavage stood at 0.07.
To U25A A47U G63A U66C U78C belongs 0.08; to U25C U26C U31G A56G A65U A75G, 0.06.
The value for U25C C38U A45G was 0.58; that for U25A G61A U74C A75G was 0.39; that for U25A U60C U76C was 0.21.
To U25G G30A A45G U74A U80C belongs 0.12; to U26A A35G U54C, 1.16.
As for U25C C32U U66C, the self-cleavage was found to be 0.12.
To U25A U31C U43A belongs 0.28; to U25C A35C A56G, 0.26.
For the variant U25A U26C U58C A75U, the self-cleavage turned out to be 0.12.
U25C U43A U72C U78C: the self-cleavage was determined as 0.3.
To U25C A45U U51C U69A belongs 0.12; to U25C U43G A45G U54G G63A U76C, 0.1; to U25C C71A U78C, 0.08.
The value for U25C A28C U48C was 0.28.
With U25C U72C U78A, the self-cleavage is 0.42.
The value for U25A A28G A56G A64G was 0.23.
Take U25C U41C U49A U54C G61A U72A U80A: the self-cleavage stood at 0.07.
To U25C A28G U60C belongs 0.27; to U25C A45U U67C, 0.3; to U25G U26A U74C A77U, 0.79.
The value for U25C A35G U58C was 0.11; that for U25C U41A G63A was 0.44; that for U25G U54C G70C was 0.2.
To U25C A28G G42U belongs 0.12; to U25A U49A U78C, 0.04.
G24C C37U U67C U72A: the self-cleavage amounted to 0.11.
On to U25C C37U G53A U72A, for which the self-cleavage was 0.06.
On to U25A A45C A56G, for which the self-cleavage worked out at 0.23.
The value for U25C U43C U54G was 0.13.
To U25C A28G C38U U54C U69G A77G U80C belongs 0.03; to U25A U69C A75G U76C, 0.15.
As for U25C U26C U58A, the self-cleavage was determined as 0.1.
For U25C G33U U67A, the self-cleavage stood at 0.1.
As to U25C A65U C81A, the self-cleavage stood at 0.16.
To U25C G36C C39G C62G U69C belongs 0.13; to U25C G73A U80C, 0.14; to U25C U41C A45G U74C, 0.1.
U25C G46A C71G: the self-cleavage stood at 0.1.
As to U25A A45G U69A, the self-cleavage amounted to 0.11.
In the case of U25C A35G U67C U69A, the self-cleavage came out at 0.05.
The value for U25C U48G U74G was 0.44; that for U25C U26C U43A C44A A57U was 0.3; that for U25G A64U U66C was 0.06.
Turning to G24U U25A U43C U54C, the self-cleavage was found to be 0.07.
U26A A45G A47G U74C U80C: the self-cleavage is 0.57.
The value for U25C A35U C38A U60A U66C was 0.1; that for U25A A28G U41G was 0.39; that for U25C G30C C44A U54C A77G was 0.03.
For U25C U41C A56U U67C, the self-cleavage was 0.11.
The value for G24C A45G U58G U67C was 0.17; that for U25A A45G G55C was 0.09.
The value for U25A U41C U51A G70A was 0.29.
As for U25C A35U A47G U74A, the self-cleavage was 0.28.
The value for G24C C34U U41C U51C was 0.35; that for U25C U26A A65U U80C was 0.38; that for U25A U26C U31C C32G U72C was 0.06.
The value for U25C C27G A64G U78C was 0.16.
To U25C A28G U31C U41C C62U U74G A77G belongs 0; to U25C G70C U76C, 0.09; to U25C G36A U43A U67A U72C, 0.05.
Consider U25C A35U U51C A65U U69C, for which the self-cleavage worked out at 0.07.
Regarding U25A U41A U58C, the self-cleavage stood at 0.15.
As to U26A A45U U49C U76A, the self-cleavage came out at 0.05.
The value for U25C U26A U41A was 0.36; that for U25C U60A U69G was 0.27.
U25C U41C U43C U49C: the self-cleavage came out at 0.4.
To U25C U31G A56G A57U A65U A75G belongs 0.1; to U25C A28U A45C A65G, 0.17; to U25G U31C U78C, 0.12.
The value for U25C U51A U69C was 0.15; that for U25C U26A G46A U69C was 0.38.
For the variant U25A U54G G70A U80C, the self-cleavage was found to be 0.16.
Turning to U25G U49C U51A, the self-cleavage was 0.07.
The value for U25C G30C U41G was 0.17; that for U25C A45G U51C was 0.35.
With U25C A28U U48A, the self-cleavage turned out to be 0.13.
Consider U26A A28U U43C A45G, for which the self-cleavage was 0.07.
The value for U25C C38U U43C U76C was 0.34; that for U25C U41A U43A U51C U54C A64G was 0.08.
For the variant U26A C37A U54C, the self-cleavage turned out to be 0.11.
The value for U25C C44A A45U U67C was 0.08; that for U25A U66C U67C was 0.46; that for U25C C32U C44A G63U was 0.13.
To U25A U43C U74A belongs 0.09; to U25C G30A U51A U69C, 0.15.
Regarding U25A U26C U43A U58C, the self-cleavage was determined as 0.12.
To U25C U43C G61A A65U belongs 0.18; to U25A U31C C40U G42U G61A, 0.08; to U25G U41C U54C U72C, 0.27.
To U26A C40A G55U U69C belongs 0.11.
G24C A28G U54C A56U: the self-cleavage is 0.07.
The value for U25C U26A U49C was 0.26; that for U25C A45G U48C U69C was 0.17; that for U25A U60A U74A U80C C81U was 0.12.
To U25A A28U C59A G70U belongs 0.15.
As for U25G U43A U54C, the self-cleavage came to 0.38.
The value for U25C U48C U69A was 0.41.
The value for U25C A28G U43C U54A U58C was 0.05; that for U25C A45G U49A C81U was 0.01.
The value for U25C U26C A45G A56G U80C was 0.1; that for U25C A35U C40U U69A was 0.15; that for U25C U26C U31G U43A U60C was 0.1.
Consider U25C A65G U76C, for which the self-cleavage is 0.55.
As to U25C A47U U51A A77G, the self-cleavage came out at 0.14.
The value for U26A A35C A45G C62A U74C was 0.09.
The value for U25G C29G A64G U78C was 0.13.
In the case of U26A C32A A35G U49A U51C, the self-cleavage came to 0.14.
Take U25A U78C U80A: the self-cleavage came out at 0.21.
In the case of U25C A28G C29U A57G U76C U80C, the self-cleavage stood at 0.14.
Turning to U25C G33A U69C U76C, the self-cleavage was found to be 0.07.
